# Measured values from the supplement of paper PMC3334620.
# The full ranking holds about 33,000 sequences; the median of “E-score (-0.5 to 0.5)” is about -0.016, and the highest 2% start at about 0.32. Some of the results follow.
# Target: T1, Stp1 (UniProt B3LFK1)
# T1 sequence: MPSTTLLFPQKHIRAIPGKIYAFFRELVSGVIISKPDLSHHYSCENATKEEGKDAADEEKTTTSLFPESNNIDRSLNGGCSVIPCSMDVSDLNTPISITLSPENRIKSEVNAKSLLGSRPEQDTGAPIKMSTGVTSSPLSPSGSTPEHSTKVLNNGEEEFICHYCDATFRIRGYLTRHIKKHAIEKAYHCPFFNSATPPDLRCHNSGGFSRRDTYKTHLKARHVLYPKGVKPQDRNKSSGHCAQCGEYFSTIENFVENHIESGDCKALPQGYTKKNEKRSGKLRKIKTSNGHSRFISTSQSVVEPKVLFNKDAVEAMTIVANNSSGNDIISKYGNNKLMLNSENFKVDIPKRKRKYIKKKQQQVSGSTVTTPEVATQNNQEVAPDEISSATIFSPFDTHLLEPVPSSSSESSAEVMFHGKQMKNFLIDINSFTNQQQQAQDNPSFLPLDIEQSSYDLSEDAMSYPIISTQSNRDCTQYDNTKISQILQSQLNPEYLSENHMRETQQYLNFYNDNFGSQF
# Experiment: PBM E-score (8-mer binding enrichment) (E-score (-0.5 to 0.5)); higher = stronger / more preferred TF binding; most listed sequences are background and not binding sites
# Conditions: protein concentration: 200 nM; construct: GST-full length
# Description: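 Universal 'all 10-mer' protein binding microarrays (Agilent AMADID 015681) probed with GST-tagged S. cerevisiae TFs (full-length or DBD) made by in vitro transcription/translation (PURExpress), about 100-200 nM. Bound TF was detected with fluorescent anti-GST. Each ungapped 8-mer (which stands for itself and its reverse complement) is scored by the PBM enrichment score (E-score), a modified Wilcoxon-Mann-Whitney statistic from -0.5 to +0.5, computed with the Universal PBM Analysis Suite. Scale: above 0.35 generally sequence-specific binding.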
row,Sequence,PBM E-score
1,CCCCATGC,-0.0589
2,TTCGTCAA,-0.079
3,TTCATCAA,0.0209
4,TATTCTAA,0.0429
5,TAGCATGA,-0.11
6,ATTCAATA,0.23
7,CGATCGAC,0.0877
8,ACAGGAAT,-0.0486
9,GCGGCTAA,0.304
10,GACCAGGA,-0.165
11,TGGGTGAA,0.154
12,CGAATATC,-0.0869
13,CACCTGAG,-0.123
14,AGGATAAG,-0.123
15,TCGTTAAA,-0.0183
16,CACATCTC,-0.0379
17,TCATCAAA,0.137
18,TCGATAGA,0.1
19,CATTAGTA,-0.0313
20,GAGCAATA,-0.0681
21,AGCACTTC,-0.208
22,AAGTGGGG,-0.355
23,ACCCATCC,-0.189
24,CCTTCCGC,-0.0417
25,GAATGACC,-0.102

row,Sequence,PBM E-score
1,ACGCCTAC,-0.0656
2,AATAGTTA,0.164
3,AGAGCCCG,-0.0895
4,ATTAACAA,0.249
5,GAACACCA,-0.133
6,CCTCCAAG,-0.0795
7,AATCGATA,0.18
8,AGGCACCA,0.366
9,ACCGTTAT,-0.0617
10,ACTCATCA,-0.0466
11,CATTCTGC,0.0719
12,TAAACAGA,-0.0109
13,ATCACCTA,-0.175
14,CTCAAGCA,-0.183
15,AATCATGC,-0.024
16,ACACATGC,0.0352
17,GAGGATCC,-0.139
18,GTCTCGTA,-0.0751
19,CAAAACGA,0.108
20,CAAATTAA,0.117
21,ATGAGATC,-0.0595
22,CACGACGA,-0.0637
23,ATCCGTTC,0.217
24,AACGGTGA,-0.0237
25,AATACAAT,0.0401

row,Sequence,PBM E-score
1,AAGTGGAG,0.00133
2,AAGGATAG,-0.00218
3,CTGACCGC,-0.11
4,TCATAGGA,0.0953
5,ACATGGGT,-0.108
6,TCATGGAA,-0.0494
7,AGTAGCAC,-0.0227
8,GGAACTCA,-0.201
9,ACAAGGGT,-0.0238
10,CTTCTCTC,-0.035
11,ACGCCTCG,0.381
12,CTTAGCTA,-0.0783
13,CGCGGATA,0.297
14,ACTGAAAA,0.0532
15,GGTAGTCA,-0.388
16,ATCACCAG,-0.00524
17,ACGTTAGG,-0.041
18,ACGAACGC,0.159
19,AGCTACGC,0.117
20,TAAAGAAA,0.173
21,CTAGCCAC,-0.146
22,CCATGAAA,0.124
23,GCGTTGTA,0.133
24,CAGAGGAC,-0.15
25,ACTAGTAT,0.0239

row,Sequence,PBM E-score
1,ATAGAACC,-0.0631
2,ACAGACCA,-0.0595
3,CCGGAGAC,-0.131
4,GTATTCGA,-0.0928
5,GTGGGCGA,-0.00284
6,ACGGATCT,0.157
7,ACGACGCA,0.0151
8,AATCCCCA,-0.248
9,CACACCAG,0.00669
10,AGGGATGG,0.0506
11,GGGAAGAC,-0.17
12,TAGCTAAA,0.0136
13,AGTTTTGC,0.203
14,CGGACTAA,0.0595
15,CTGCACAG,-0.0773
16,CCCGATTA,-0.0457
17,CACCGATG,0.0307
18,AGGACTGC,-0.256
19,AGACTCAG,-0.133
20,AGATTTTA,0.00229
21,GGAGGACC,-0.0674
22,TATTGGGA,-0.00437
23,CCACTAAG,-0.0734
24,AGTGGCAT,0.138
25,AGTAGCCC,-0.18

row,Sequence,PBM E-score
1,CGCAGTTC,0.00875
2,GCGAAGCA,0.0608
3,GGTACTAC,0.0131
4,CTTCGGGC,-0.283
5,GAAAGTCC,-0.223
6,ATTGACAG,-0.0817
7,CCATGTGA,0.0626
8,CACCGGAA,-0.063
9,CTCGTTGA,0.0229
10,TCCAATCA,0.111
11,AAATTAGA,0.164
12,GTATCCAA,-0.00185
13,GAATTCAC,0.00462
14,CAGCCGCA,0.215
15,ATCCTCAA,-0.0466
16,ATTACGCG,0.25
17,ACGTCATG,0.0735
18,ACCAGCGA,-0.232
19,CGGGTAAC,0.00093
20,GCAATCGA,0.0926
21,ACCTTTGA,-0.201
22,AGATAAAA,0.12
23,AATTTCGT,0.167
24,AAGCGACA,-0.0218
25,CGCTTGAG,-0.0328

row,Sequence,PBM E-score
1,AAGGTAGT,-0.00268
2,AACGCAGC,0.0987
3,AGTAACGA,0.0053
4,AGGAACTC,0.0359
5,GACACATA,0.0206
6,ACTGTTCA,-0.162
7,TCGCTAAA,0.103
8,AGGTCCAT,-0.00683
9,CACTCACA,-0.0382
10,CCGACACA,-0.186
11,AGGCCGCA,0.162
12,ATTATATA,0.146
13,CACCGTCC,0.0591
14,AATCGCCG,0.431
15,GCCGGTGA,0.0592
16,CGATATCA,0.116
17,ACCATCCA,-0.213
18,CCATCAAG,-0.214
19,CCCCATGA,-0.159
20,GGACTCCA,-0.225
21,AGAAAACG,0.128
22,CATACCTC,0.0449
23,TAACCTCA,-0.136
24,CATCGGAC,-0.183
25,AAATCTGA,0.2

row,Sequence,PBM E-score
1,AGCTATGA,-0.183
2,GCGGTGAA,0.148
3,GGCAAACC,-0.00027
4,AGCGTTCA,-0.266
5,CGTCCGGA,-0.134
6,ACGTCTAT,-0.206
7,CCTGGGCA,-0.264
8,ATTAAGCG,0.194
9,CACGTATA,0.133
10,GCTACGAA,0.0105
11,ATGATTGG,-0.0406
12,AAACAGCC,-0.024
13,ACTCATCC,0.027
14,GCACGATA,0.0861
15,AAAGCGTA,0.016
16,ACTAAAGC,-0.0112
17,GATACCCA,-0.117
18,AACGCTCC,-0.122
19,GACCCACC,-0.27
20,AAAGTGAT,-0.0727
21,CAATCTGG,-0.0352
22,CACATTAA,0.0258
23,TAGATCAA,-0.00316
24,GCATGTAA,0.125
25,AGCCTGAC,-0.154

row,Sequence,PBM E-score
1,ACCTCTCT,-0.171
2,ATCAGGCA,-0.0243
3,CTCCGAAC,-0.0224
4,ATGTGTTG,0.131
5,CCATGAGC,-0.0849
6,GGTCAGAA,-0.0152
7,CCGGAAAC,-0.171
8,GGAATTAA,0.0807
9,CATACAAG,-0.135
10,ACCCTGCT,-0.321
11,CGTCGACA,0.089
12,GACAAGCC,0.104
13,ACTCTCAG,0.0178
14,ACATAGTC,-0.0859
15,GAGTCGAC,-0.193
16,AGAAAGTC,-0.168
17,ATAAATCG,0.106
18,AGGCTTGG,-0.0363
19,AACCCGCA,-0.00015
20,AGAACACT,0.0761
21,GCGTCATA,0.168
22,CTACCAAA,-0.0408
23,TCTCCAGA,-0.04
24,AAGAGTGA,-0.0731
25,GTCTTCGA,-0.0273

row,Sequence,PBM E-score
1,CGAGTGAG,-0.0223
2,GGTTGCTA,-0.185
3,ACCTGTGC,-0.0825
4,CTCCCAAC,-0.0984
5,CTCGTCGC,-0.0397
6,AGGTCAAA,-0.16
7,ACTCAGCA,-0.126
8,GACTGGGA,-0.28
9,GACAGGGC,0.249
10,ATAGCGAG,-0.0746
11,CGTATCTC,0.0667
12,ATAGTCTG,-0.0167
13,AGCCCGAT,0.0428
14,TGTCCCAA,-0.0586
15,ATCGTGGG,0.0581
16,CCGGGATC,-0.192
17,TCGTCTAA,-0.0335
18,AGAGGCCA,-0.175
19,GACTCCTC,-0.135
